The text below walks through data of the supplement of paper PMC10600219.

Where a name gives a salt, the structure may show the parent alone. Over roughly 2,800 compounds, “cell viability relative to vehicle” has its median near 0.98; the lowest 2% begin near 0.45. Some of the results follow.

The test system of this assay is NCI-H2228 alectinib-DTP. Nature of the assay: cell viability relative to vehicle (fraction of vehicle); NCI-H2228 is an ALK-positive lung cancer line and DTP means drug-tolerant persister; higher = less growth inhibition. Conditions: 100 nM; treatment time 6 days. The procedure, abridged: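 Values give cell viability as a fraction of vehicle-treated cells. Parental and drug-tolerant persister NCI-H2228 cells (persisters made with 1000 nM of a targeted drug for 13 days) were exposed in 384-well plates to the 3114-agent TargetMol anti-cancer compound library at 100 nM, with DMSO as vehicle. ATP was then read after 6 days by the CellTiter-Glo 3D Cell Viability Assay.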
In the case of `NC(=O)c1cnc(-c2ccc(C3(N)CCC3)cc2)c(-c2ccccc2)c1`, the cell viability amounted to 0.932. `CC(=O)O[C@]1(C(C)=O)CC[C@H]2[C@@H]3C=C(C)C4=CC(=O)CC[C@]4(C)[C@H]3CC[C@@]21C` [Megestrol acetate]: the cell viability was 0.881.

As to `CN(C)C(=O)c1cc2cnc(Nc3ccc(N4CCNCC4)cn3)nc2n1C1CCCC1` [Ribociclib], the cell viability was 0.94. Under `CN1CCN(c2ccc(Nc3cc(-c4cccc(-n5ccc6cc(C7CC7)cc(F)c6c5=O)c4CO)cn(C)c3=O)nc2)CC1` stands 1.01.

`CC(C)Cc1ccc([C@@H](C)C(=O)NS(C)(=O)=O)cc1` [Repertaxin] gave a cell viability of 1.1.

`COc1ccc2c(c1)c(CC(=O)OCC(=O)O)c(C)n2C(=O)c1ccc(Cl)cc1` [Acemetacin] showed a cell viability of 0.994. In the case of `COc1cc(C2Oc3ccc(C4Oc5cc(O)cc(O)c5C(=O)C4O)cc3OC2CO)ccc1O` (configuration not stated) [Isosilybin], the cell viability is 1.01.

The molecule `CC(=O)NC[C@H]1CN(c2ccc(N3CCOCC3)c(F)c2)C(=O)O1` [Linezolid] had a cell viability of 1.11.

With `Cc1nccn1CC1CCc2c(c3ccccc3n2C)C1=O` (configuration not stated) [Ondansetron hydrochloride], the cell viability came to 0.846. As for `Cn1sc(=O)n(Cc2ccccc2)c1=O`, the cell viability stood at 0.987.

As for `Nc1ncnc2c1ncn2[C@@H]1O[C@H](CO)C[C@H]1O` [Cordycepin], the cell viability was determined as 0.963. For the molecule `COc1ccc2cc3[n+](cc2c1OC)CCc1cc2c(cc1-3)OCO2` [Berberine], the cell viability is 1.09.

In the case of `CC[C@H](C)[C@@H]1NC(=O)[C@@H]2CCCN2C(=O)[C@@H]2CCCN2C(=O)[C@@H]2CCCN2C(=O)[C@H](CC(C)C)NC(=O)CNC(=O)CNC(=O)[C@H](Cc2ccccc2)NC1=O` [Heterophyllin B], the cell viability was determined as 1.02. In the case of `Cc1cc([N+](=O)[O-])c(NS(=O)(=O)c2cccc(C(=O)O)c2)cc1-c1cccnc1` [Alofanib], the cell viability is 0.978. Consider `Cc1ccc(S(=O)(=O)/C=C/C#N)cc1`, for which the cell viability stood at 1.07.

On to `COc1cc(-c2cc(-c3ccc(N4CCNCC4)cc3)cnc2C)cc(OC)c1OC`, for which the cell viability was 1.15. Consider `C[C@H](CCC(=O)NCCS(=O)(=O)O)[C@H]1CC[C@H]2[C@@H]3[C@H](O)C[C@@H]4C[C@H](O)CC[C@]4(C)[C@H]3C[C@H](O)[C@]12C` [Taurocholic acid sodium salt hydrate], for which the cell viability came out at 1.04.

Regarding `Nc1ccccc1NC(=O)c1ccc(CNc2nccc(-c3cccnc3)n2)cc1` [Mocetinostat], the cell viability came to 0.667. Consider `Cn1nc(-c2ccc(C(F)(F)F)cc2)nc2c(=O)n(C)c(=O)nc1-2` [Walrycin B], for which the cell viability came to 0.741. For the molecule `CC(C)(C)NCC(O)COc1cccc2c1CC(O)C(O)C2` (configuration not stated) [Nadolol], the cell viability is 0.951.

The molecule `CC1=C(C(=O)O)N2C(=O)[C@@H](NC(=O)[C@H](N)c3ccccc3)[C@H]2SC1` [Cephalexin] had a cell viability of 1.21. `CC[C@H](C)C(=O)O[C@H]1C[C@H](O)C=C2C=C[C@H](C)[C@H](CC[C@@H](O)C[C@@H](O)CC(=O)O)[C@H]21` [Pravastatin sodium] displayed a cell viability of 1.02. As for `Cc1cccn2c(=O)c(-c3nnn[nH]3)cnc12` [Pemirolast potassium], the cell viability was determined as 0.847.

Regarding `CCOCCn1c(N2CCCN(C)CC2)nc2ccccc21` [Emedastine], the cell viability worked out at 1.02. Turning to `COc1cc(C(=O)OCCCCNC(=N)N)cc(OC)c1O` [Leonurine hydrochloride], the cell viability stood at 1.08.

Regarding `C[C@H]1O[C@H](O[C@@H]2[C@@H](O)[C@H](OCCc3ccc(O)c(O)c3)O[C@H](CO[C@H]3OCC(O)(CO)[C@@H]3O)[C@H]2OC(=O)/C=C/c2ccc(O)c(O)c2)[C@@H](O)[C@@H](O)[C@@H]1O` (some centres not stated) [Forsythoside B], the cell viability was 0.906.

With `Cc1cc(Nc2ncc(Cl)c(Nc3ccccc3S(=O)(=O)C(C)C)n2)c(OC(C)C)cc1C1CCNCC1`, the cell viability came out at 0.896. `CCNC(=O)Nc1ccc(-c2nc(N3CCOC[C@@H]3C)c3c(n2)C(C)(C)S(=O)(=O)C3)cc1` had a cell viability of 0.508. The same measure for `N[C@@H](CCNCc1ccc(Cl)cc1)C(=O)N1CCCCC1`: 1.18; for `C[C@@H](Oc1cc(-c2cnn(C3CCNCC3)c2)cnc1N)c1c(Cl)ccc(F)c1Cl` [Crizotinib]: 0.962. For the molecule `Nc1ncc(-c2ccnc(Nc3ccncc3)n2)c(CC2CC2)n1`, the cell viability turned out to be 0.996. Under `CC(Cc1ccc(O)c(O)c1)C(C)Cc1ccc(O)c(O)c1` (configuration not stated) [Nordihydroguaiaretic acid] stands 1.08; under `CC/C=C\CC1C(=O)CCC1CC(=O)OC` (racemic) [(±)-Methyl Jasmonate], 0.91. The same measure for `Cc1c(CN2CCN(S(C)(=O)=O)CC2)sc2c(N3CCOCC3)nc(-c3cnc(N)nc3)nc12`: 0.514. The same measure for `CC(C)(O)CNc1nc(Nc2ccnc(C(F)(F)F)c2)nc(-c2cccc(C(F)(F)F)n2)n1` [Enasidenib]: 0.96; for `CNCC[C@@H](Oc1ccccc1C)c1ccccc1` [Atomoxetine hydrochloride]: 0.876; for `CC(C)(C)c1cc(NC(=O)Nc2ccc(Oc3ccnc4[nH]c(=O)cnc34)cc2F)n(-c2ccccc2)n1`: 1.12.

Molecule `C=CC(=O)Nc1cccc(Oc2nc(Nc3ccc(N4CCN(C)CC4)c(F)c3)nc3[nH]ccc23)c1` [Avitinib] registered a cell viability of 0.747. Under `O=C(Nc1ccc2[nH]nc(-c3ccncc3)c2c1)[C@@H]1CCN(CC(=O)N2CCN(c3ccc(-c4ncccn4)cc3)CC2)C1` stands 0.831; under `C=C1CCC[C@]2(C)C[C@]3(O)OC(=O)C(C)=C3C[C@@H]12` [Atractylenolide III], 0.995; under `CCCCC1C(=O)N(c2ccccc2)N(c2ccccc2)C1=O` [Phenylbutazone], 0.919. `O=c1cc(N2CCOCC2)oc2c(-c3ccc4c(c3)OCCO4)csc12` gave a cell viability of 0.999. `COc1cc2ncnc(Nc3ccc(F)c(Cl)c3)c2cc1NC(=O)/C=C/CN1CCCCC1` [Dacomitinib]: the cell viability was determined as 0.767. `CC(=O)Oc1cc(C)c(OC(C)=O)c2ccccc12` [Menadiol Diacetate]: the cell viability is 1.11. As to `Cc1ccc(C(=O)N(CCCN)[C@@H](c2nc3cc(Cl)ccc3c(=O)n2Cc2ccccc2)C(C)C)cc1` [Ispinesib], the cell viability came out at 0.777. As to `CC(=O)/N=c1/sc(S(N)(=O)=O)nn1C` [Methazolamide], the cell viability came out at 0.815. `CC1=CC(=O)c2ccccc2C1=O` [Menadione]: the cell viability was 1.12. Turning to `COCCCOc1cc(C[C@@H](C[C@H](N)[C@@H](O)C[C@H](C(=O)NCC(C)(C)C(N)=O)C(C)C)C(C)C)ccc1OC` [Aliskiren hemifumarate], the cell viability was 0.972. Take `CC(C)(C)C1CCc2c(sc(NC(=O)c3ccco3)c2C(=O)O)C1` (configuration not stated): the cell viability is 1.09.

Take `CCCc1nc2c(C)cc(-c3nc4ccccc4n3C)cc2n1Cc1ccc(-c2ccccc2C(=O)O)cc1` [Telmisartan]: the cell viability is 0.867. The same measure for `CCCCCC=CC(=O)CCc1ccc(O)c(OC)c1` [6-Shogaol]: 1.07; for `CCCC(=O)Nc1ccc(OCC(O)CNC(C)C)c(C(C)=O)c1` (configuration not stated) [Acebutolol hydrochloride]: 1.09.

`Cc1nn(C)c(COc2ccc(N3CCN(S(=O)(=O)N(C)C)CC3)cc2)c1-c1cccc2c(CCCOc3cccc4ccccc34)c(C(=O)O)n(CCN3CCOCC3)c12` showed a cell viability of 0.959. `C=C[C@H]1[C@H](O[C@@H]2O[C@H](CO)[C@@H](O)[C@H](O)[C@H]2O)OC=C2C(=O)OCC[C@]21O` [Swertiamarin] yielded a cell viability of 0.944. With `C[C@@H]1O[C@@H](OC[C@H]2O[C@@H](Oc3c(-c4ccc(O)c(O)c4)oc4cc(O)cc(O)c4c3=O)[C@H](O)[C@@H](O)[C@@H]2O)[C@H](O)[C@H](O)[C@H]1O` [Rutin], the cell viability was 0.922.

Consider `NC(=O)Nc1sc(-c2ccc(F)cc2)cc1C(N)=O`, for which the cell viability is 1.03. Consider `CC1(C)C(=O)N(CCN2CCC(C(=O)c3ccc(F)cc3)CC2)c2ccccc21`, for which the cell viability is 0.827. With `CCCOc1ccc(/C=C2\SC(=O)NC2=O)cc1`, the cell viability worked out at 1.01. The molecule `N=C(N)c1ccc(N=NNc2ccc(C(=N)N)cc2)cc1` [Diminazene Aceturate] returned a cell viability of 1.05. Regarding `C[C@H](CCC(=O)O)[C@H]1CC[C@H]2[C@@H]3C[C@H](O)[C@@H]4C[C@H](O)CC[C@]4(C)[C@H]3CC[C@]12C` [Hyodeoxycholic acid], the cell viability came to 1.02. Molecule `O=C(NCc1ccc2c(c1)OCO2)c1c(Cl)cccc1Cl` had a cell viability of 0.937. The same measure for `Nc1ccccc1NC(=O)CCCCCCC(=O)Nc1ccccc1`: 0.956.

The molecule `Cn1cc(C2=C(c3cn(CCCSC(=N)N)c4ccccc34)C(=O)NC2=O)c2ccccc21` [Ro 31-8220 Mesylate] came in with a cell viability of 0.865. `C[C@@H]1O[C@@H](O[C@H]2[C@H](Oc3cc(O)c4c(c3)O[C@H](c3ccc(O)cc3)CC4=O)O[C@H](CO)[C@@H](O)[C@@H]2O)[C@H](O)[C@H](O)[C@H]1O` [Naringin] gave a cell viability of 1.15.

In turn, `COc1ccc(CCc2cc(OC)c(OC)c(OC)c2)cc1O` [Erianin] came in with a cell viability of 0.697. With `O=P(O)(O)O[C@H]1[C@H](OP(=O)(O)O)[C@@H](OP(=O)(O)O)[C@H](OP(=O)(O)O)[C@@H](OP(=O)(O)O)[C@H]1OP(=O)(O)O` [Phytic acid], the cell viability came to 1.13. `NS(=O)(=O)Oc1ccc2c3c(c(=O)oc2c1)CCCCC3` [Irosustat] showed a cell viability of 0.927. `Cc1nc(N(C)C(=O)Cc2ccc(-c3ccccn3)cc2)sc1S(N)(=O)=O` [Pritelivir] yielded a cell viability of 0.849.

For the molecule `Cn1cc(/C=C/C(=O)c2cccc(F)c2)cc1/C=C/C(=O)NO`, the cell viability amounted to 0.84. Turning to `C/C(O)=C(\C#N)C(=O)Nc1ccc(C(F)(F)F)cc1` [Teriflunomide], the cell viability is 1. As for `CONC(=O)Nc1ccc(-c2sc3c(c2CN(C)Cc2ccccc2)c(=O)n(-c2ccccc2)c(=O)n3Cc2c(F)cccc2F)cc1` [Sufugolix], the cell viability worked out at 0.96. `C[C@@H]1C/C=C/C=C/C=C/C=C/[C@H](O[C@@H]2O[C@H](C)[C@@H](O)[C@H](N)[C@@H]2O)C[C@@H]2O[C@](O)(C[C@@H](O)C[C@H]3O[C@@H]3/C=C/C(=O)O1)C[C@H](O)[C@H]2C(=O)O` [Pimaricin] returned a cell viability of 1.27.
